From PubChem BioAssay AID624202 (National Center for Advancing Translational Sciences (NCATS), 2012)
About 4,000 (1.1%) of roughly 380,000 compounds were called active. Inconclusive results, whose numbers are uncertain, are shown with a selection of clear calls. The call rests on the fitted dose curve; in most records, active means well fitted activation curve with a large enough effect; inconclusive means small, poorly fitted or top-dose-only effect; inactive means no such curve, though single readings can be large or run the other way. Potencies of inconclusive entries are doubtful fits and often do not repeat.

Assay: qHTS Assay to Identify Small Molecule Activators of BRCA1 Expression; further: nearly all actives have a fitted effect of over 80% in size
Settings: MCF7-BRCA1-FFLuc reporter, luminescence, 48 h; series mostly up to 46.1 µM
Outline: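 Compounds are tested at multiple concentrations on MCF7 BRCA1-luciferase reporter cells seeded at 2000 per well; after 48 h, a single luminescence end-point is taken and curves fitted to the normalized data.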
Potency means the concentration at half of the fitted maximal effect; tags describe the fitted curve by direction and shape.

Structure (SMILES) | Potency
O=C(c1cnc2c(c1)COc1ccccc1-2)c1ccccc1O | inconclusive: 12.6 µM [activator, partial curve, poor fit]
O=C(CC1CCCCC1)NCc1ccc(Cl)cc1 | active: 11.2 µM
CCOc1ccc(-c2nc(C#N)c(NC3CC3)o2)cc1 | active: 10 µM
Cc1sc(NC(=O)c2ccc(F)cc2)c(CN2CCCCCC2)c1C | inactive
O=C(O)c1ccc(Oc2nc3ccccc3s2)cc1 | inconclusive: 1.58 µM [activator, partial curve, poor fit]
CCOC(=O)C(CC)n1cnc2c(oc3ccccc32)c1=O (centres undefined) | inactive
CC(=O)NCCc1nc2cc(NC(=O)c3ccc(Cl)cc3)ccc2n1C | inconclusive: 1.26 µM [activator, full curve, poor fit]
C=C(C)CSCc1nc2ccccc2[nH]1 | inconclusive: 35.5 µM [activator, single point]
Cn1cc(Cl)c(C(=O)NC2CCCCCC2)n1 | inconclusive: 20 µM [activator, single point]
Cc1ccc(-c2nc(P(=O)(c3ccccc3)c3ccccc3)c(N3CCOCC3)o2)cc1 | inactive
COc1cccc(/C=C/C(=O)c2ccc[nH]2)c1 | active: 7.94 µM
Clc1cc(Br)ccc1OCCN1CCOCC1 | inactive
Cc1ccc(-c2cc3nc4c(c(=O)n3[nH]2)CCCC4)cc1 | inconclusive: 0.562 µM [activator, full curve, poor fit]
CC(=O)NC12CC3CC(C1)CC(C(=O)OCC(=O)c1ccc4c(c1)OCCO4)(C3)C2 | inconclusive: 12.6 µM [activator, partial curve, poor fit]
Cc1c(C=O)c2ccccn2c1C(=O)c1ccccc1 | inactive
COc1ccc(C(=O)Sc2ccc(Cl)cc2)cc1OC | inactive
COc1cc(N=c2ssnc2Cl)cc(OC)c1 | inactive
CCN1C(=O)[C@H]2[C@@H](c3ccc(C)cc3)N3C(=O)N(c4ccc(OC)cc4)C(=O)[C@@]3(C)[C@H]2C1=O | inactive
C[C@H](NC(N)=O)C(=O)Nc1ccc(OCc2ccccc2)cc1 | inconclusive: 31.6 µM [activator, single point]
CCNc1nc(-c2ccc(Cl)cc2)cs1 | active: 2.82 µM
NC1=NC(c2cc(F)cc(F)c2)n2c(nc3ccccc32)N1 (centres undefined) | inactive
Cc1ccc(OCC(=O)N2CCc3ccccc3C2)c(Br)c1 | active: 12.6 µM
NC(=O)c1ccccc1NC(=O)COc1ccc(Cl)cc1 | inconclusive: 7.08 µM [activator, full curve, poor fit]
COc1ccc(N=C2C(=Nc3ccc(OC)cc3)N(c3ccc(OC)cc3)C(=S)N2C(=O)c2ccc(OC)cc2)cc1 | inconclusive: 15.8 µM [activator, partial curve, poor fit]
CN(C)c1ccc(/C=C/c2cccc[n+]2[O-])cc1 | inconclusive: 3.16 µM [activator, partial curve, poor fit]

Structure (SMILES) | Potency
O=C(O)c1cc(-n2[nH]c(=O)c3ccccc3c2=O)ccc1Cl | inconclusive: 14.1 µM [activator, partial curve, poor fit]
O=C1c2ccccc2NC(c2ccccc2)N1/N=C/c1ccccc1 (centres undefined) | inconclusive: 3.16 µM [activator, partial curve, poor fit]
Cc1cc(C(=O)Nc2ccccn2)cs1 | inconclusive: 1.26 µM [activator, partial curve, poor fit]
COC(=O)c1ccc(Sc2nnnn2-c2ccccc2)c([N+](=O)[O-])c1 | inactive
CCCOc1ccc(C(=O)C(CN2CCOCC2)c2ccccc2)cc1 (centres undefined) | inactive
COc1cc2sc3ccc(-c4ccc(N(C)C)nc4)cc3c(=O)c2cc1OC | inconclusive: 3.16 µM [activator, full curve, poor fit]
Cc1ccc(-c2nnc(CSc3nnc(C)s3)o2)cc1 | inconclusive: 15.8 µM [activator, single point]
Cc1ccc(NC(=O)c2ccc3nc[nH]c3c2)nc1 | inconclusive: 0.501 µM [activator, full curve, poor fit]
CCOc1cnc(-c2ccc(OC)cc2)o1 | active: 7.94 µM
CCOc1ccc2oc(C(=O)O)c(C)c2c1 | inconclusive: 12.6 µM [activator, partial curve, poor fit]
COc1cccc(OC)c1C(=O)OCC(=O)NCC(C)C | inactive
CC1(C)C(=O)Nc2ccccc2N1C(=O)COC(=O)CNS(=O)(=O)c1ccc(F)c(F)c1F | inactive
Cc1ccc(Nc2n[nH]c(C)c2[N+](=O)[O-])cc1 | inconclusive: 2.24 µM [activator, full curve, poor fit]
Cc1ccc(Nc2nc3ccccc3c(=O)[nH]2)cc1C | inconclusive: 2 µM [activator, full curve, poor fit]
CCOC(=O)c1ccc(CNC(=O)c2cc(COc3ccccc3SC)on2)o1 | inconclusive: 2.51 µM [activator, partial curve, poor fit]
COc1ccc(C2=Nn3c(nnc3-c3ccco3)SC2)cc1 | inactive
COc1ccccc1C(=O)O/N=C(\N)c1ccccc1Cl | inconclusive: 31.6 µM [activator, single point]
Cc1ccc(NC(=O)c2sc3nc(N)c(C#N)cc3c2N)cc1 | inconclusive: 0.631 µM [activator, full curve, poor fit]
Cc1ccc2oc(=O)c(/C=C(\O)c3cccs3)nc2c1 | inconclusive: 1.26 µM [activator, partial curve, poor fit]
O=C(CCN1C(=O)c2cccc3cccc(c23)C1=O)N1CCOCC1 | active: 12.6 µM
Cn1c2ccccc2c2ncn(CCC3=CCCCC3)c(=O)c21 | active: 10 µM
CC(=O)c1ccc(N2CCN(C(=O)c3ccc4nc[nH]c4c3)CC2)cc1 | inconclusive: 35.5 µM [activator, single point]
CCCCC(=O)Nc1cnc(NC(=O)c2ccco2)cc1C | active: 11.2 µM
O=C(c1cccs1)c1coc2ccc(O)cc12 | inconclusive: 35.5 µM [activator, single point]
